Data taken from patent publication US4089965A, “Thiazolylphenylguanidines as antirhinovirus agents” (American Cyanamid Company, priority 1977, dated 1978).

Test system: Rhinovirus strain 1B
Assay: Protection of tissue from cytopathic effects (plaque inhibition, filter paper disc or agar overlay)
Parameters: key: +: Protects tissue from destruction by virus; .-+.: Partial protection
Settings: 33°, 3 to 5 days
Source text: Confluent monolayers of a continuous cell-line such as HeLa, HEp-2, KB or L-132, grown in plastic tissue culture dishes, were infected with one of the rhinoviruses, for example, types 1B, 2, 5, 14 or 23 and other members of the picornavirus group, including the enteroviruses, for example, coxsackie A-11 and A-21.
Protection of the tissues to the cytopathic effects of the viruses were ascertained either by means of a plaque inhibition test in which the test compound was adsorbed onto a filter paper disc and placed on the agar used to overlay the infected cell monolayers, or by incorporation into the said agar overlay. The agar overlay medium used for this purpose was of the following formulation: […]
The virus infected cell monolayers plus test compound were incubated in a humidifier atmosphere of 5% carbon dioxide at 33° for 3 to 5 days. The ability of these compounds to protect tissues from destruction by the viruses was then evident after staining the residual uninfected cells with 0.5% crystal violet in 20% ethanol.

| Compound | Protection of tissue from destruction by virus |
| --- | --- |
| N=C(Nc1ccccc1)Nc1nc(-c2ccccc2)cs1 [1-(4-phenyl-2-thiazolyl)-3-phenylguanidine] | .-+. |
| COC(=O)c1ccc(NC(=N)Nc2nc(-c3ccccc3)cs2)cc1 [1-(4-phenyl-thiazolyl)-3-(4-carbomethoxyphenyl)-guanidine] | .-+. |
